Reference: the supplement of paper PMC3334620
Whole data set: some 33,000 sequences, median “E-score (-0.5 to 0.5)” near -0.012, cut for the highest 2% near 0.29. The list shows a part of the results.

target: T1, Ybr033w (UniProt P38073); experiment: PBM E-score (8-mer binding enrichment) (E-score (-0.5 to 0.5)); higher = stronger / more preferred TF binding; most listed sequences are background and not binding sites; conditions: protein concentration: 200 nM; construct: GST-full length
T1 sequence: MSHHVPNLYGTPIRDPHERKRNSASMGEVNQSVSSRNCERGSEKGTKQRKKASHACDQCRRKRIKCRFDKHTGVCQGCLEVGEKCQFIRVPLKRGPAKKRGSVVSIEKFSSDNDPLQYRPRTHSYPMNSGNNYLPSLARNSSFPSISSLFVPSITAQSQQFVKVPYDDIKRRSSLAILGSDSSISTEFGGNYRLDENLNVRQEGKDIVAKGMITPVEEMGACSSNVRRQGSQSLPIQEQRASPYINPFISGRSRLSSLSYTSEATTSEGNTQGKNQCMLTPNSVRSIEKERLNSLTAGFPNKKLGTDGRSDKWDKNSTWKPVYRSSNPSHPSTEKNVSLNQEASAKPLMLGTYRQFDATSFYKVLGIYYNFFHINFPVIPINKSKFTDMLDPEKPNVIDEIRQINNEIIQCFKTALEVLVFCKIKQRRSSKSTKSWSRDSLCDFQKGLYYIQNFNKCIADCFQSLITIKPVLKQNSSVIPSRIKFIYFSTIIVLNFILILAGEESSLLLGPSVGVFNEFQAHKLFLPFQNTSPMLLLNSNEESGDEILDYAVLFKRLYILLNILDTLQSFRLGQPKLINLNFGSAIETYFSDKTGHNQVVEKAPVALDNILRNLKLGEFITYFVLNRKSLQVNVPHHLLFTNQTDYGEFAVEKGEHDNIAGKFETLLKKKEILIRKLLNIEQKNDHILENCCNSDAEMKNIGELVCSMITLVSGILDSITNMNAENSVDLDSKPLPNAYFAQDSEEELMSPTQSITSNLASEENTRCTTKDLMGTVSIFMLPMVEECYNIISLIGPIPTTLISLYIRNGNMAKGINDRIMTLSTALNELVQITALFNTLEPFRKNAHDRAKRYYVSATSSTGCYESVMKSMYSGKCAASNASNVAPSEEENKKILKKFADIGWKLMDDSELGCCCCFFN
Outline: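 Masliner-normalised scans of fluorescent anti-GST signal were the basis for scoring. That signal came from GST-tagged yeast transcription factors applied at about 100-200 nM to double-stranded universal all-10-mer Agilent arrays on fresh or once-stripped slides. Each ungapped eight-base word, pooled with its reverse complement, received an E-score from the Universal PBM Analysis Suite.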

| Sequence | PBM E-score |
| --- | --- |
| GTAAGAGA | -0.1 |
| CAATTCGC | -0.0297 |
| GGCGGAGA | -0.149 |
| GCATCGGC | -0.179 |
| GTAGGTTA | 0.0742 |
| GTCTAAGA | 0.00167 |
| CTCTATTC | 0.0334 |
| GTTTTACA | 0.097 |
| GTAATGAC | 0.124 |
| ATCCACGC | -0.0875 |
| CACTGCGA | -0.0164 |
| ACGTGCTA | -0.0824 |
| CTTCTCAA | 0.0494 |
| CGTAGAGA | -0.0357 |
| CTCGCCGC | -0.113 |
| AACCCGAG | -0.0949 |
| GGTCCCTA | -0.266 |
| CGATATAC | 0.0716 |
| CTGTCGTA | 0.0281 |
| GCCCTCAA | -0.0838 |
| ACCGGAGA | 0.112 |
| CCGAAGAC | 0.00094 |
| CGCGTTGA | -0.173 |
| ATCCAGGC | -0.15 |

| Sequence | PBM E-score |
| --- | --- |
| CTCTAGCC | -0.174 |
| GGAAGCCC | -0.0887 |
| ATGATCAG | 0.0939 |
| CAGTAGTA | 0.0054 |
| TCGCATCA | 0.0873 |
| GAGTATCA | 0.0233 |
| ATGTGAAA | 0.168 |
| ACCACCAA | 0.0783 |
| ACAATTCT | 0.234 |
| GCTGTAGA | 0.0906 |
| AAGTGCTC | -0.137 |
| CTCAGTGA | -0.056 |
| AACGCAGT | -0.216 |
| ATAGCCGA | -0.0166 |
| TCGTCCCA | 0.0631 |
| CTAACAGC | 0.0372 |
| AATATATA | 0.277 |
| CAGCCCTA | -0.142 |
| ATTTGTAA | 0.266 |
| CATAGACC | -0.0475 |
| ATGCTGTA | 0.0893 |
| GAGTATCC | -0.0164 |
| GGGTTCAC | -0.03 |
| GGGATCTA | -0.0846 |

| Sequence | PBM E-score |
| --- | --- |
| ATGGTTGG | -0.00724 |
| AGTAATGG | 0.127 |
| ATTTCGTG | 0.207 |
| AGGACCCG | -0.151 |
| GAACCTTA | 0.235 |
| CGCCAACA | 0.0341 |
| CTTCTACA | 0.0183 |
| GCAGGGAA | 0.0667 |
| CTTGTAAA | 0.14 |
| AGCTTCCT | 0.0496 |
| AATCGGAA | 0.238 |
| AAAACCGT | 0.0113 |
| GGGGAGGA | -0.205 |
| AAATAGAC | 0.101 |
| AGAGGTTG | -0.103 |
| GTACCATA | 0.00958 |
| CGTACGTC | -0.339 |
| AGTTCGCG | -0.0796 |
| ATAAAGCG | 0.11 |
| GATGAGAA | 0.0192 |
| CCGTCCGC | -0.366 |
| CAGGGTGC | -0.316 |
| AAGCAACA | 0.117 |
| AACAGAGG | -0.113 |

| Sequence | PBM E-score |
| --- | --- |
| ACTCACAC | -0.1 |
| GTCCAAAC | -0.142 |
| GATGGTCC | -0.299 |
| ACGCAATA | 0.177 |
| GACGTCCA | -0.0351 |
| TATGTTGA | 0.191 |
| CCAGGACA | -0.0752 |
| ACACTTAC | 0.14 |
| AGTCAAGG | -0.0815 |
| GCTCGAAC | 0.0518 |
| GCGAGGAA | 0.125 |
| GGCTCCAC | -0.267 |
| CTAGAACC | -0.072 |
| ATCCGCAT | 0.188 |
| CGATCTCA | 0.00902 |
| AAACTTGT | 0.232 |
| GGGCCGAA | -0.212 |
| CGGTTAGA | -0.12 |
| CCCCGAGG | -0.201 |
| ACGTTCTG | 0.0106 |
| ACATTGCA | 0.108 |
| AACGCCCG | -0.124 |
